Results published in publication PMC12136788.
Some of the results follow.

B1: ENSG00000100439:stop:overlap|stop_codon|ENSG00000100439|stop_codon|NA|stop_codon (ssRNA)
RNA: GGGAGUUCUACAGUCCGACGAUCCUGUCCUAGGACGUUCCAAUCCAUUGGCUGUUCUUCGAGUAGCUGGGCCCUGGGGUGAGUAGCCUGAAUACAAAGGUGACUAAGAUUCUGCCUCAGUCUCUGAAGAGACCAACAAGUUGACAACAGAGGAUUGAGCAUCA
B2: chr1:205084032:205084133:-|CDS|ENSG00000174529|msi1|total|mutant (ssRNA)
RNA: GGGAGUUCUACAGUCCGACGAUCGGAGACCGUCUGUGAGGUGGGCCCUGAUGGAGUGAGAAGGAAAUGUCAGACUCGGCGCUCCGAAUGUCUGACCAACUGGAUCUGUGGGAUGCUCCAUUUCACCAUUCUCAUUGGCAAGGACAACAGAGGAUUGAGCAUCA
B3: chr11:108173179:108173289:-|CDS|ENSG00000149308|unk|FALSE|unique (ssRNA)
RNA: GGGAGUUCUACAGUCCGACGAUCUGGUUCCAAGUCAUCAGAUUCUAGUGAAGUUCACAAGAGUAAAAUAGAAAUUAAUGUGUUAGAACCAGUUAUGUCACAGCUAUCAAAUUGCCAAGAUAAUUCUUGUCUUCAAAGUGAAAUCAACAGAGGAUUGAGCAUCA
B4: chr8:58582127:58582250:+|3pUTR|ENSG00000137575|unk|FALSE|bound_elsewhere (ssRNA)
RNA: GGGAGUUCUACAGUCCGACGAUCUUCAUAUUACUUUAGUUCUAUAGCAUACUUGCAUCUUUAACAUGCUAUCAUAGUACAUUUAGAAUGAUUGCCUUUGAUUUUUUUUUUAAAUUCUGUGUGUGUGUGUGUAAAAUGCCAAUUCAACAGAGGAUUGAGCAUCA
B5: chr17:35009752:35009853:-|3pUTR|ENSG00000092871|msi1|total|mutant (ssRNA)
RNA: GGGAGUUCUACAGUCCGACGAUCAUUCAGCUACUCAGUUCCUCUGUAAAACAGGUCUAUGUAUGUGCAAUUCAGCUAAGAUCCCGCAGUAACUUAAGGGCAGAAGCUGGCUCUCUACUUACAACCUGCUUUCUCUGCUGAAGCCAACAGAGGAUUGAGCAUCA
B6: ENSG00000107863:be:win_3951|CDS|ENSG00000107863|bound_else_gene|NA|bound_elsewhere_windowed (ssRNA)
RNA: GGGAGUUCUACAGUCCGACGAUCGGUCACCCACAUGCCUGACCAGUACAAGAUUGUAGAAACGCUCAUCCAGCACCAUGACUGGUUUUUCACAGAAGAAGGUGCUGAAGAGCCUCUUACAACAGUGCAGGAGGAAAGCACAGUCAACAGAGGAUUGAGCAUCA
B7: chr20:38493008:38493109:+|CDS|ENSG00000170471|unk|total|mutant (ssRNA)
RNA: GGGAGUUCUACAGUCCGACGAUCAUUGGAUGGAGAGACUGUAAAAUAUUGCGUUGAUGUAUAUACAGACUGGAUUAUGGCUUCCGUGUUGCCAAAAGAUUCUAUUCCAUUGCCAGUUAUUAAAGAGCCUAAUCAAUAUGUUCACAACAGAGGAUUGAGCAUCA
B8: ENSG00000070961:be:win_4901|3pUTR|ENSG00000070961|bound_else_gene|NA|bound_elsewhere_windowed (ssRNA)
RNA: GGGAGUUCUACAGUCCGACGAUCCAGUGCAUCAGUCUGUUCUCUUUGACCACAAUUGGAAUACAUUUCAAGAUGGUAACAGCCCCAUGAAGUACCGCUUUAAUUCCUUGCUGGUAAUCUAAUAGAAUCAGAUUAAGAAAAUUACAACAGAGGAUUGAGCAUCA
B9: chr2:160273923:160274028:-|3pUTR|ENSG00000153250|unk|FALSE|unique (ssRNA)
RNA: GGGAGUUCUACAGUCCGACGAUCGGGCUUUUAAAAGGUAGUCAAUAAAAGUUGCUGAAAUUUUGGCUUUUUUAAAUAUGUAGUAGGUGUUUUUAAUGAUUUUUCACAUAAUGUGUAAGGUAGUGAAAUGCAAGAAGGGAAAAACAACAGAGGAUUGAGCAUCA
B10: chrX:100674576:100674677:+|3pUTR|ENSG00000102359|msi1|total|mutant (ssRNA)
RNA: GGGAGUUCUACAGUCCGACGAUCUUGCAAUCCACACCAAAUCAAUCUUUGAAAACAUUCCUCCAUUCGGUUCAUACAUACAGCCGAAACCACUGUGGCUGCCCUUAAUCCAGUGUGCUUACCGGAAAUCAGUCCGCAGCUGACCAACAGAGGAUUGAGCAUCA
B11: chr1:23091194:23091296:-|CDS|ENSG00000169641|unk|total|mutant (ssRNA)
RNA: GGGAGUUCUACAGUCCGACGAUCCUCCAGAAGGACCCAAAGCCGCCUCACUGUGUCAGAGGUGCUUACCCGUCGGAAUCGGGCCGGAGACACCAUCACUGUCGCAGCCUGGAACCACUCAGCAAGCAUGGUGAGUUCCAGCCUCAACAGAGGAUUGAGCAUCA
B12: chr12:122271799:122271900:-|3pUTR|ENSG00000130779|msi1|FALSE|bound_elsewhere (ssRNA)
RNA: GGGAGUUCUACAGUCCGACGAUCGUAUAAAACACCUAAAUAACCAAUCUACAAUCUCCCUUCACAAGUUUUUUUACUGUUUUUAGAUGAAUGUACGAUGAGAAAUUCAACGUUAAUAAUUCUGGAUUUUCUUAUCACAAAAAACAACAGAGGAUUGAGCAUCA
B13: chrX:120258281:120258382:+|3pUTR|ENSG00000177485|msi1|total|mutant (ssRNA)
RNA: GGGAGUUCUACAGUCCGACGAUCUGUACAAUCUUCCCUGUCAUGACUUUAAGUUCUACUUUUCAUUAACCAUGGCCUGAUAUCCGUUCUCCGAGCUUCUUGUGGCAAAAAUAAAAUGAUUUAAUUCUGAUGUUUGAGUGCGUGCAACAGAGGAUUGAGCAUCA
B14: chr7:44210018:44212343:-|three_prime_utr|ENSG00000058404|control|control|control (ssRNA)
RNA: GGGAGUUCUACAGUCCGACGAUCCCCCAAUCCUGGCAGGCGUGGCAGAGGGAGCUCCACAGGACACAGCCAGGCAGAGAAACUAGCACUAGAACAGGGUGGGGGUGGAGGCCUUGAGGGAAGCUGUCCACAAGCAAUUCCCAUCAACAGAGGAUUGAGCAUCA
B15: chr12:68660398:68660499:+|3pUTR|ENSG00000127314|msi1|total|mutant (ssRNA)
RNA: GGGAGUUCUACAGUCCGACGAUCUUGAGGUGGCCAAAUGUAAACUAAAAGCCUUAAUUAAAGUGGUGCAAUUUUGUAUAACUCCGCAUCAGCCGUUCAAUAAAUUUGGAUUGCCAUGCAAGGGCUUGCAUUAUAAUUACUUGCCAACAGAGGAUUGAGCAUCA
B16: chr13:79312715:79312816:-|3pUTR|ENSG00000139746|unk|total|mutant (ssRNA)
RNA: GGGAGUUCUACAGUCCGACGAUCCCUUGUGAUUUAUUAUAAUGCCGCAGCAUACUUAUAAAAGUGGUCUGUGCUGAGUCAGACCGAGAGCCCAGCCCAUCCGAAACACAUCAUAAUUUAAGAAUAUGAUGCAGAAUGCCCUUACAACAGAGGAUUGAGCAUCA
B17: chr7:139306712:139306813:+|3pUTR|ENSG00000157741|msi1|total|mutant (ssRNA)
RNA: GGGAGUUCUACAGUCCGACGAUCAUCUGGGGCUUGCCCUUGGAUUUCACUUGUUAAACACCCUCAAACUUAAAAGAAGAAAACCGAUCUCCAGCUGGUGAAAAUUUUGUGCCCCAAAUAAUAUAUUAAUCCAAGUCUACCAAGCAACAGAGGAUUGAGCAUCA
B18: ENSG00000070961:be:win_401|CDS|ENSG00000070961|bound_else_gene|NA|bound_elsewhere_windowed (ssRNA)
RNA: GGGAGUUCUACAGUCCGACGAUCAUGCACUUUGUGGAGAAGUUUCUGUUGGGGAGGAAGAAGGUGAAGGUGAAACUGGUUGGAUUGAAGGAGCUGCAAUCCUCUUGUCUGUAGUGUGUGUGGUGUUAGUAACAGCUUUCAAUGCAACAGAGGAUUGAGCAUCA
B19: chr11:35231115:35231675:+|3pUTR|ENSG00000026508|msi1|FALSE|unique (ssRNA)
RNA: GGGAGUUCUACAGUCCGACGAUCCAGGACAAGGUUCAAAAUGGUUACAACAGCCUCUACCUGUCGCCCCAGGGAGAAAGGGGUAGUGAUACAAGUCUCAUAGCCAGAGAUGGUUUUCCACUCCUUCUAGAUAUUCCCAAAAAGCAACAGAGGAUUGAGCAUCA
B20: chr4:175634378:175634624:-|3pUTR|ENSG00000150625|msi1|FALSE|unique (ssRNA)
RNA: GGGAGUUCUACAGUCCGACGAUCUUUCUUAUGUUUUGAAAAGAAAAUAGCUUUUUAUACUUUUUAGUUUUGAUUUCGGUAACUAGUUUAACUACAGGUAACCUUCAAAGGGACCAUUGUACAUUAUGAACAAUAGAUAGAGAUCAACAGAGGAUUGAGCAUCA
B21: ENSG00000175727:stop:overlap|stop_codon|ENSG00000175727|stop_codon|NA|stop_codon (ssRNA)
RNA: GGGAGUUCUACAGUCCGACGAUCAGCUGCCAGAGCAGGCGUCCAAGGCUGUCACCAGGAUUGGCAAGAGAUUGGGAGAGUCCUAGCUGCUUAGCUGGCAUGUGGCCGCAUGAGAUGCCAGGAGACCCUUCCCUGCCCAUGGAGCAACAGAGGAUUGAGCAUCA
B22: chr7:7234405:7234460:+|CDS|ENSG00000106392|msi1_unk|total|mutant (ssRNA)
RNA: GGGAGUUCUACAGUCCGACGAUCAAUUUUUUAACCUUCCUCUGUGGAUCAGCAACCGGAUUUCUUUUAUGUUCUCAGCUAUUCCGUAUUUUGUUGGGAGAAAAGGUUGACACCCAGCCUAAUGUUCUUCAUAAUGAUCCUCAUCAACAGAGGAUUGAGCAUCA

What follows are binders tested against MSI1 full-length (mouse, UniProt Q61474 1-362) (assay: nsRBNS (natural sequence RNA bind-n-seq); RBNS binding buffer (assumed for nsRBNS): 25 mM Tris pH 7.5, 150 mM KCl, 3 mM MgCl2, 0.01% Triton X-100, 500 ug/ml BSA, 20 U/ml SUPERase-In, 4 C; UNK is unkempt and MSI1 is Musashi-1; names of the RNAs are library labels; protein concentration not given here; high values mean tight binding).
UniProt Q61474, sequence (Q61474 whole entry): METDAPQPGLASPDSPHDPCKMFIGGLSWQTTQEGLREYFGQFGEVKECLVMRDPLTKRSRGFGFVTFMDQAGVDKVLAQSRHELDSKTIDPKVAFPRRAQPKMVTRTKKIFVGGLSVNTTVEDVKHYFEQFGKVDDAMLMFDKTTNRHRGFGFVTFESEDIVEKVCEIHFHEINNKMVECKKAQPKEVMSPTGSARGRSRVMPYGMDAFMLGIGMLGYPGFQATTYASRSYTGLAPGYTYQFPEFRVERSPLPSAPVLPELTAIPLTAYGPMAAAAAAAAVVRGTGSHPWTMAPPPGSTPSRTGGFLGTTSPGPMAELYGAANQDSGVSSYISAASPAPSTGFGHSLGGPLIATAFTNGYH

Row | Binder | binding signal
1 | B1 | 0.636 enrichment R
2 | B2 | 0.456 enrichment R
3 | B3 | 1.48 enrichment R
4 | B4 | 10.5 enrichment R
5 | B5 | 0.371 enrichment R
6 | B6 | 0.341 enrichment R
7 | B7 | 0.506 enrichment R
8 | B8 | 0.372 enrichment R
9 | B9 | 5.91 enrichment R
10 | B10 | 0.411 enrichment R
11 | B11 | 0.386 enrichment R
12 | B12 | 1.89 enrichment R
13 | B13 | 0.315 enrichment R
14 | B14 | 1.05 enrichment R
15 | B15 | 0.349 enrichment R
16 | B16 | 1.96 enrichment R
17 | B17 | 0.746 enrichment R
18 | B18 | 1.61 enrichment R
19 | B19 | 0.641 enrichment R
20 | B20 | 11.1 enrichment R
21 | B21 | 0.818 enrichment R
22 | B22 | 0.347 enrichment R
